Reference: the supplement of paper PMC10126150
Values marked as one replicate rest on one cluster of the flow cell; about a third of the high ones do not repeat.

What follows are sequences tested on ATP (assay: switch fluorescence ratio, 500 uM ATP over buffer (Cy3 cluster intensity, sum of 5 cycles each) (fold (ratio)); higher = stronger signal-on switching upon ATP binding; sequences stand for … in TCGTCGGCAGCGTCAGATGTGTATAAGAGACAGTTTTTTTTTTTTTTTTTTTTTTTTT…TC). Conditions: aptamer strand: ATP DNA aptamer (quencher-CACCTGGGGGAGTATTGCGGAGGAAGG + anchor), 100 nM annealed; ATP concentration: 500 uM; one replicate.
Outline: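 For every switch-domain sequence, the fluorescence ratio is the mean of per-cluster values, each being summed target-cycle Cy3 intensity over summed buffer-cycle Cy3 intensity. Clusters outside 100-1000 RFU were excluded. On a modified Illumina MiSeq flow-cell, the Cy3-labelled switching-strand clusters were annealed to 100 nM quencher-labelled ATP aptamer, imaged in selection buffer and then after 15 min with 500 uM ATP at 22 °C. Five such cycles were run, with NaOH stripping and re-annealing between them.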
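Also: ATP exposure 15 min at 22 °C before imaging.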

| Sequence | switch fluorescence ratio |
| --- | --- |
| AGGATCAGCC | 1.05 |
| GCATGCATGA | 0.998 |
| GAGATGTAA | 1.02 |
| TGATTGCAAG | 1.09 |
| CCACGGGGGT | 1.08 |
| TGACCTCCAT | 1.09 |
| GAAAATGGTA | 0.979 |
| TCGACTGCGC | 1.33 |
| GCTGGGCCTA | 0.998 |
| GCGAGGGAAG | 1.03 |
| TTTACATATT | 1.02 |
| TGCAGTTGC | 0.972 |
| TCGATTCCTA | 1.01 |
| CAACTTAGAG | 1.02 |
| TGGCTAGGTC | 1.01 |
| CAACAAGGGG | 1.02 |
| CAGTTTACAA | 1.03 |
| ATTAACCGGC | 1.11 |
| AATCGTATGT | 0.997 |
| CCCTGCTCGC | 1.63 |
| GAAGGCGTTC | 1.01 |
| GGGTAACTCT | 0.971 |
| TTACCGTCCG | 1.11 |

| Sequence | switch fluorescence ratio |
| --- | --- |
| CGACAAGAAT | 1.01 |
| AACATTCCAA | 1.04 |
| TATGACGAAT | 0.984 |
| AAATATGGAG | 0.952 |
| AATGCGGTAG | 0.972 |
| CGTCGTATCT | 0.95 |
| TCTCGACTGT | 0.998 |
| GCGAGCGCCC | 0.993 |
| CGCGTAGTTT | 1.02 |
| TGAAGCGCAT | 1.08 |
| GTACTTGGAA | 1 |
| GGGTACGTAA | 1.03 |
| AATATTAGTG | 0.95 |
| TGACGAATGT | 1 |
| TTATTGTGAG | 0.993 |
| AAACTTCG | 1.1 |
| TCCAGTAGCA | 1.3 |
| CGCTTTCAAT | 1.03 |
| CCTGTTAGA | 1.01 |
| ATTGACGAAA | 1.07 |
| AGCGAAGCGC | 1.02 |
| TCCCATGAAG | 1.01 |
| AGTAGGTAGC | 0.984 |

| Sequence | switch fluorescence ratio |
| --- | --- |
| ACGAATTCCG | 1.01 |
| AAGTAGGCTT | 1.01 |
| TTTTCCCGCT | 1.11 |
| CTAATCAACG | 1.06 |
| AGATGCATAA | 0.98 |
| CGTGCATAAT | 1.01 |
| TAGGCAATG | 1.77 |
| TAATTCC | 1.1 |
| GGTAGCAGGA | 1.02 |
| CCACTTACAT | 1.27 |
| TATAGCAATC | 4.54 |
| TAATTGGAAT | 1.25 |
| CGTTAATCGG | 1.02 |
| TAGGTGTACT | 1.04 |
| TCCAAAGAT | 1.02 |
| ATATAGTCAT | 0.933 |
| TCTGTTGGA | 0.991 |
| GCCACTTAGC | 0.988 |
| GCTGGGAACT | 0.989 |
| CACCCGCCTT | 1.03 |
| GGGATACCAG | 1.01 |
| AGTGGCTACG | 1.04 |
| TTTAGAGCGG | 0.995 |

| Sequence | switch fluorescence ratio |
| --- | --- |
| CAGGCAAATT | 1.33 |
| ACGTGGTTCG | 1 |
| CAGATGGCGT | 1.01 |
| ATGAGGTGGA | 1.04 |
| TGCGCTTGGT | 0.971 |
| CCGCTGATCG | 1.9 |
| GTGCTACGGT | 0.998 |
| GCGTGCATAA | 0.944 |
| ACGTAACTTA | 1.13 |
| TTAAATGAAG | 0.95 |
| TAAAACACGT | 1.05 |
| CTTGAGTGGA | 0.992 |
| CTTGACTAAA | 1.01 |
| AAGTTTGTAC | 1.01 |
| TAGAACACGT | 0.949 |
| ACAATGACAC | 1.1 |
| GTCAGGCGTT | 1.01 |
| AATCACTCGC | 1.02 |
| AGCCTCAGCA | 1.29 |
| GCCGTGAAGG | 1.01 |
| TTAGAGTGG | 0.986 |
| CAAAAAGCAG | 1.02 |
| AGGGAGAGTG | 0.96 |

| Sequence | switch fluorescence ratio |
| --- | --- |
| AACTCCCTTA | 1.1 |
| GACAAGTGAC | 1.21 |
| TTTGCCAACG | 0.964 |
| GATGTCTATT | 0.993 |
| CATGAGGTGC | 1.09 |
| GGCGAACGAA | 1.09 |
| TTCGGCGC | 1.03 |
| TACCAGATAC | 1.41 |
| CGTAATTGGT | 1.05 |
| AACTGAGGAA | 1.04 |
| GCTTATTTGA | 0.947 |
| AAGTTATTAG | 0.981 |
| CGAGGCAGGG | 1.31 |
| AAACGGGACT | 1.18 |
| CATTGACGGC | 1.05 |
| CTTCATTGTA | 1 |
| CCGTAGGGTC | 1.22 |
| CAAGGGCTTT | 1.03 |
| CGGGACGTT | 1.18 |
| CGAATGCCTT | 1.01 |
| GAAAAAAACT | 1.02 |
| ACGGGCAAAA | 0.905 |
| ATTTTCAGTG | 0.994 |

| Sequence | switch fluorescence ratio |
| --- | --- |
| TTAACATACT | 1.32 |
| CTCCTTGGAC | 1.47 |
| AGTCACTTGC | 1.03 |
| GAAAATAGTT | 0.966 |
| TTTTGGCCGC | 1.05 |
| TGAAATTGAG | 0.986 |
| TTCATGGCAT | 0.986 |
| CGATGAGCAC | 1.22 |
| GTGGGTTTAC | 1.02 |
| AATCAGGCTT | 0.994 |
| GATACACGTA | 0.972 |
| TCTAAATGTG | 1 |
| TACCTGTGGT | 0.947 |
| CTCGGAGTGG | 1.04 |
| CAGCAACAGG | 1.2 |
| TCCTGATCTT | 0.993 |
| CGGAGTGGGT | 1.09 |
| ATTGATCGCA | 1.01 |
| AGATTGGCGA | 1 |
| ATTAGGCCCC | 1.04 |
| ATATGATGCG | 0.996 |
| TCGCAGCCGT | 0.959 |
| TCACTCTCCC | 1.1 |

| Sequence | switch fluorescence ratio |
| --- | --- |
| TGTGCTAGTC | 1.08 |
| GTGGAAAGAC | 1.13 |
| TTACTCAGTT | 1.01 |
| CTTCTTAAGC | 1.08 |
| TAACCGGTAG | 0.986 |
| AAGCAGCCTT | 1.06 |
| TAAGACAGGT | 0.997 |
| CGGCACCTTC | 1.22 |
| TTCAAGGTGG | 0.976 |
| CGTCCATCAA | 2.97 |
| GCGGGGCAGT | 1.02 |
| AAGCGAAGGG | 1.06 |
| GTTGAGCGCG | 1.04 |
| TGGTTGAAGT | 0.968 |
| AGTAAGAGTG | 1 |
| GGCGAGCAGG | 1.02 |
| TACCAGGAA | 1.02 |
| CTGGGTTAA | 0.976 |
| ACCCGGTGCC | 1.42 |
